# Measurements taken from PubChem BioAssay (NCATS).
# “And” between values parts separate entries of the source, which are not always exact repeats. Equal entries are not always repeated. Inconclusive means that the source gave no clear call. Such entries were picked first, then a sample of the others. Potencies of inconclusive entries are doubtful fits and often do not repeat. Where a structure was tested more than once in an assay, its records may differ in their call. The source made the active and inactive calls. Calls follow the shape of the dose curve; as a rule, active = well fitted activation curve with a large enough effect; inconclusive = small, poorly fitted or top-dose-only effect; inactive = no such curve, though single readings can be large or run the other way.
# Biological target: Cellular tumor antigen p53 (Homo sapiens) (UniProt P04637)
# UniProt P04637, sequence (P04637 whole entry, looked up): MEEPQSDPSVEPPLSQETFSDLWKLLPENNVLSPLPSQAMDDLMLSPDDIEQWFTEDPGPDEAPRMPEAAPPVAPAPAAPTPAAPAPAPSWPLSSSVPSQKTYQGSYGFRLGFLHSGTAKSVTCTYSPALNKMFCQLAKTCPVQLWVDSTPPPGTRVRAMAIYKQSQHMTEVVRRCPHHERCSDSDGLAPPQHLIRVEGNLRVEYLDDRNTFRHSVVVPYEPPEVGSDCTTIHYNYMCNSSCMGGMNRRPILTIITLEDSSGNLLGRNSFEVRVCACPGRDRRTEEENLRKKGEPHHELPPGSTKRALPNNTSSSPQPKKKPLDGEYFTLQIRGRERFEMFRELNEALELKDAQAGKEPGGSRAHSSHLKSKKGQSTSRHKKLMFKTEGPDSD
# Experiment: Primary qHTS for small molecule compounds that upregulate eGFP-tagged delta133p53alpha (in N-terminal) cells. (AID 2060322); also: nearly all actives have a fitted effect of over 75% in size;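 as to activation: series mostly up to about 56 µM; 0% = DMSO vehicle and 100% = reference activator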
# Conditions: NCI-H358 eGFP-delta133p53alpha fluorescence, 24 h; activation: stronger effect = higher value
# How it was run: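 NCI-H358 cells pre-induced 24 h with 10 ng/ml doxycycline to express N-terminal eGFP-delta133p53alpha, then dosed 24 h at 37C without doxycycline; fixed, Hoechst-stained, GFP intensity by laser scanning cytometry, normalized to DMSO (0%) and 57.5 uM 5-azacytidine (100%).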
# Potency is read from the fitted curve at half-maximal effect; tags tell the direction and shape of the fitted curve.
SMILES,Potency,activation
CCc1c2c(nc3ccc(O)cc13)-c1cc3c(c(=O)n1C2)COC(=O)[C@]3(O)CC,"inconclusive: 30.6 µM [activator, partial curve, poor fit]",–
COc1ccc2c(Oc3ccc(NC(=O)c4c(C)n(CC(C)(C)O)n(-c5ccccc5)c4=O)cc3F)ccnc2c1,–,inactive: -9.3% and inactive: -1.91%
CCCn1c(=O)c2[nH]c(-c3cnn(Cc4cccc(C(F)(F)F)c4)c3)nc2n(CC)c1=O,"inconclusive: 3.06 µM [activator, partial curve, poor fit]",–
Cn1cc(CCn2cnc(-c3cnn(C)c3)c2-c2ccc(C#N)cc2)cn1,"inconclusive: 2.39 µM [activator, partial curve]",–
CC(=O)Nc1cccc2c1c(Sc1ccc(Cl)cc1)c(C)n2CC(=O)O,"inconclusive: 23.9 µM [activator, single point]",–
C[C@@H](Oc1cc(-n2cnc3ccc(OC4CCN(C)CC4)cc32)sc1C(N)=O)c1ccccc1C(F)(F)F,active: 4.78 µM,–
CC[C@@H]1[C@H]2CCCCN3C(=O)C[C@H]([C@@H]4[C@H]1OC(=O)[C@H]4C)[C@@H]23,–,inactive: -0.763%
CS(=O)(=O)c1ccc(C2=C(c3ccccc3)C(=O)OC2)cc1,"inconclusive: 12.2 µM [activator, partial curve, poor fit]",–
N#Cc1cnc2c(Cl)cc(NCc3cn(CCN4CCCCCC4)nn3)cc2c1Nc1ccc(F)c(Cl)c1,active: 4.26 µM,–
c1cc(-c2cnn3cc(-c4ccc(N5CCNCC5)cc4)cnc23)c2cccnc2c1,active: 15.1 µM,–
Cc1cc(C)c(CNC(=O)c2cc(-c3ccc(CN4CCOCC4)cc3)cc3c2cnn3C2CCCC2)c(=O)[nH]1,active: 4.31 µM,–
O=C1NC(=O)C(c2cnc3ccccn23)=C1c1cn2c3c(cc(F)cc13)CN(C(=O)N1CCCCC1)CC2,"active: 30.1 µM and inconclusive: 27.2 µM [activator, partial curve, poor fit]",–
CC(C)COCC(CN(Cc1ccccc1)c1ccccc1)N1CCCC1 (configuration not stated),active: 34.7 µM,–
Cc1oncc1C(=O)Nc1ccc(C(F)(F)F)cc1,–,inactive: -3.35% and inactive: -18.5% and inactive: -19%
O=c1cc(N2CCOCC2)oc2c(-c3ccccc3)cccc12,"inconclusive: 43.2 µM [activator, single point]",–
Cc1cn2c(N)c(Cl)cc(C(=O)NCC3CCN(CC(C)C)CC3)c2n1,–,inactive: -0.893%
Cn1cc(-c2ccc(S(=O)(=O)n3ccc(/C=C/C(=O)Nc4ccccc4N)c3)cc2)cn1,active: 19 µM,–
Cc1c(OCC(F)(F)F)ccnc1CS(=O)c1nc2ccccc2[nH]1 (configuration not stated),"inconclusive: 2.39 µM [activator, partial curve, poor fit]",–
CC(=O)OC/C(=C/C(=O)O)CC[C@@H]1C(CO)=CC[C@@H]2C(C)(C)CCC[C@@]12C,–,inactive: 2.29%
CC(C)c1noc(N2CCC(COc3ccc(-c4ccc(S(C)(=O)=O)cc4)nc3)CC2)n1,–,inactive: -0.134% and inactive: -12.9%
O=C(CC12CC3CC(CC(C3)C1)C2)Nc1cccc2nc(NCCNCCO)ccc12,–,inactive: 11.8% and inactive: 6.68%
Cc1nc(Nc2ncc(C(=O)Nc3c(C)cccc3Cl)s2)cc(N2CCN(CCO)CC2)n1,"inconclusive: 8.63 µM [activator, partial curve, poor fit] and inconclusive: 692 nM [activator, partial curve, poor fit] and active: 9.53 µM",–
CNc1nc(Nc2ccc(C(=O)N3CCOCC3)cc2OC)nc2[nH]cc(Cl)c12,"inconclusive: 37.9 µM [activator, single point]",–
CNc1nc(C)nc(N[C@H]2CCC[C@@H](C(=O)NCc3ccc(C#N)cc3C(F)(F)F)C2)n1,–,inactive: 10%
C=C1C(=O)OC[C@@H]1C/C=C(\C)CC1CC(C)C(=O)O1 (some centres not stated),active: 23.9 µM,–
C=C(C)C(=O)OC1CC2(C)OC(=CC2=O)C(=C)CC2OC(=O)C(=C)C12 (configuration not stated),active: 4.67 µM,–
NC(=O)c1cccc(N)c1,"inconclusive: 10.9 µM [activator, full curve, poor fit]",–
